Results on 65 compounds are retold here after PubChem BioAssay AID602293 (National Center for Advancing Translational Sciences (NCATS), 2012).

Screen size: about 1,300 compounds; about 30 (2%) were called active. Roughly 10% stayed inconclusive and do not appear here. Calls follow the shape of the dose curve; as a rule, active = well fitted inhibition curve with a large enough effect; inconclusive = small, poorly fitted or top-dose-only effect; inactive = flat fitted curve, though single readings scatter. The list shows a part of the results.
% is scaled to controls: 0 for no effect and ±100 for the full control effect; potency is read from the fitted curve at half-maximal effect.

A short description of this assay: qHTS for antagonists of the Thyroid Stimulation Hormone Receptor: Hit Validation in HTRF Activity in a Luteinizing Hormone Receptor Cell Line. To be noted: LHR-expressing cell line, cAMP HTRF, antagonist mode; series mostly up to 58 µM; activity change, negative = inhibition: at the top concentration. An excerpt: The thyroid-stimulating hormone receptor (TSHR) is a member of the 7 trans-membrane-spanning receptor (7TMR) family of cell surface receptors. TSHR-mediated hyperthyroidism is important in thyroid pathology. The development of small molecule antagonists of TSHR may lead to therapeutic approaches for TSHR-mediated hyperthyroidism caused by constitutively activating mutations or stimulating auto-antibodies associated with Graves' disease. Graves' disease is the leading cause of hyperthyroidism and is caused by autoantibodies that stimulate TSHR (TsAbs) causing thyroid growth and unregulated overproduction of thyroid hormones and existing treatments have liabilities (agranulocytosis). In addition, TSHRs are known to be expressed in multiple extrathyroidal tissues including bone, brain, kidney, testis, fat and cells of the immune system but the role of the TSHR in these tissues is not clear. Therefore, TSHR antagonists/inverse agonists could be used as probes of extrathyroidal TSHR function. Finally, TSHR inverse agonists, which are a subclass of antagonists that inhibit agonist-independent (or basal or constitutive) TSHR signaling, could be used to inhibit TSH-independent signaling in patients with recurrent or metastatic thyroid cancer who are receiving thyroid hormone to suppress TSH.
In collaboration between scientist from the NCGC and the NIDDK, a miniaturized HTRF high-throughput screen was developed. It's a cell based assay, where an anti cAMP antibody contains a fluorescent cryptate tag (excitation 337 nm; emission 620 nm) and the acceptor is cAMP-d2 (excitation 620 nm; emission 665 nm). When antibody and cAMP-d2 interact and are excited by a 337 nm light, a FRET occurs resulting in emission at 665 nm. The assay is competition between cAMP-d2 and cAMP (from the cell lysate). The homogeneous protocol allows for one step dispense after stimulation that is automation friendly. In order to confirm specificity of the compounds to the TSHR, a confirmatory assay was conducted on a similar family member, the Luteinizing Hormone (LH) receptor, transfected into a HEK 293 cell line, using an orthogonal detection technology to measure cAMP stimulation: antibody-based Homogeneous Time Resolved Fluorescence (HTRF).
NIH Chemical Genomics Center [NCGC]
NIH Molecular Libraries Probe Centers Network [MLPCN]
Assay Provider: Marvin Gershengorn, NIDDK
Homogeneous Time Resolved Fluorescence (HTRF) cAMP Assay. HEK 293 cells stably transfected with a vector containing the LH receptor and maintained under hygromycin selection were obtained from the laboratory of Dr. Marvin Gershengorn. Compounds were assayed using a HTRF cAMP detection kit (Cisbio) on the LH receptor transfected cell line. Briefly, 750 cells were plated in 2.5 ul/well of complete media (DMEM containing 10 % FCS, and 100 uM RO 20-1724) in 1536 well solid bottom white plates and 23 nl/well compound in DMSO solution or controls was added. Following 30 minute incubation at room temperature, 2.5 ul/well of labeled d2 cAMP and 2.5 ul/well of anti-cAMP antibody (both diluted 1:20 in lysis buffer) were added to each well using a flying reagent dispenser (Aurora Discovery, San Diego) . Plates were measured using the Envision plate reader (PerkinElmer, Boston, MA) with excitation at 330 nm and emissions of 615 nm and 660 nm.
On to `CN(Cc1ccccc1Cl)C(=O)c1cc2ccccc2o1`, for which the “activity change, negative = inhibition” value is inactive: 0.84%.

On to `Cc1ccc(CNC(=O)c2ccccc2NS(=O)(=O)c2ccc(Cl)nc2)cc1`, for which the “activity change, negative = inhibition” value is inactive: 2.33%.

For `Oc1ccc(Cl)cc1Cc1cc(Cl)ccc1O`, the “activity change, negative = inhibition” value is inactive: -1.19%.

For `O=C(NNC(=O)c1n[nH]c(=O)c2ccccc12)c1ccc(Br)cc1`, the “activity change, negative = inhibition” value was inactive: -1.4%.

As to `COc1ccc(Cl)cc1NC(=O)C1CCN(C(=O)C2CC(=O)N(c3ccc(C)cc3)C2)CC1` (stereo not given), the “activity change, negative = inhibition” value is inactive: 0.971%.

As to `Cc1ccc([N+](=O)[O-])cc1S(=O)(=O)Nc1ccc(-c2ccc(N3CCCC3)nn2)cc1`, the “activity change, negative = inhibition” value was inactive: -0.453%.

In the case of `Cc1ccc(NC(=O)CCc2nnc3ccc(NCc4ccco4)nn23)nc1`, the “activity change, negative = inhibition” value was inactive: 0.344%.

As to `CCOC(=O)c1c(NC(=O)CN2C(=O)NC(C)(c3ccc(OC(F)F)cc3)C2=O)sc(C)c1C` (stereo not given), the “activity change, negative = inhibition” value was inactive: 0.865%.

Consider `COc1ccccc1C1CCN(c2cc(O)ccc2[N+](=O)[O-])CC1`, for which the “activity change, negative = inhibition” value is inactive: 1.21%.

In the case of `CCC1CCCCN1S(=O)(=O)c1ccc(NC(=O)c2nc(S(C)(=O)=O)ncc2Cl)cc1` (stereo not given), the Potency is active: 30.1 µM.

`CCCNc1c(NS(=O)(=O)c2ccc(Br)cc2)c(=O)oc2ccccc12`: the “activity change, negative = inhibition” value was inactive: -0.309%.

For `O=C(NCC1CCCN(C(=O)c2cccc(C(F)(F)F)c2)C1)c1ccc(F)cc1` (stereo not given), the “activity change, negative = inhibition” value is inactive: 1.15%.

Regarding `Cc1c(Cl)sn(-c2ccc(Cl)cc2)c1=O`, the “activity change, negative = inhibition” value is inactive: -7.13%.

Turning to `Cc1ccc(-c2nnc(SCC(=O)NC3CCCC3)n2C)cc1`, the “activity change, negative = inhibition” value was inactive: 0.0355%.

With `Cc1ccc(NC(=O)c2cccc(OCc3c(C)noc3C)c2)cc1S(=O)(=O)Nc1ccccc1Cl`, the “activity change, negative = inhibition” value was inactive: 2.36%.

As for `CC1CCc2c(sc(NC(=O)c3ccco3)c2C(=O)O)C1` (stereo not given), the “activity change, negative = inhibition” value was inactive: -0.775%.

In the case of `COc1cccc(CN(C)C(=O)c2ccc(OCC(=O)Nc3cccc(C(F)(F)F)c3)c(OC)c2)c1`, the “activity change, negative = inhibition” value was inactive: -0.547%.

Regarding `Cc1cccc(CSCCNC(=O)c2ccc(N(C)S(=O)(=O)c3ccccc3)cc2)c1`, the “activity change, negative = inhibition” value is inactive: -1.47%.

Regarding `O=C(NCCCCc1ccccc1)NC[C@@H]1CC[C@@H](Cc2ccc(-c3ccccc3)cc2)O1`, the “activity change, negative = inhibition” value was inactive: -5.8%.

Consider `COc1ccc(S(=O)(=O)N2CCOC23CCN(C(=O)c2ccc(Cl)cc2Cl)CC3)cc1`, for which the “activity change, negative = inhibition” value is inactive: -0.906%.

As to `CC(C)C(C)NC(=O)COc1ccc(Sc2ccc(OCC(=O)NC(C)C(C)C)cc2)cc1` (stereo not given), the “activity change, negative = inhibition” value is inactive: -4.69%.

`O=C1CCCN1c1ccc(S(=O)(=O)Oc2ccc(Cl)cc2)cc1[N+](=O)[O-]`: the “activity change, negative = inhibition” value is inactive: -4.4%.

As to `COCCNC(=O)CN1C(=O)c2cccc3cccc1c23`, the “activity change, negative = inhibition” value was inactive: 2.12%.

On to `Cc1ccc(S(=O)(=O)N2CCCC(C(=O)NC3CCCC3)C2)cc1Cl` (stereo not given), for which the “activity change, negative = inhibition” value is inactive: -0.0451%.

Take `Cc1nc(N2CCN(S(=O)(=O)c3ccccc3C#N)CC2)c2c(-c3cccs3)csc2n1`: the “activity change, negative = inhibition” value is inactive: -2.15%.

Take `COc1ccc(-c2cc3c(=O)n(CC(=O)NCc4cccnc4)nc(C)n3n2)cc1`: the “activity change, negative = inhibition” value is inactive: 3.62%.

In the case of `COc1ccc(/C=N/n2c(C)nnc2C)c(OC)c1OC`, the “activity change, negative = inhibition” value was inactive: 0.838%.

With `CCc1nnc(NC(=O)c2ccc(Cl)c(S(=O)(=O)N3CCc4ccccc43)c2)s1`, the “activity change, negative = inhibition” value was inactive: 1.21%.

Take `O=C(N/N=C/c1cccc(Oc2ccc([N+](=O)[O-])cc2[N+](=O)[O-])c1)c1cncc(Br)c1`: the “activity change, negative = inhibition” value is inactive: -0.505%.

Take `CSc1nnc(C(C)(C)C)c(=O)n1/N=C/c1c(O)ccc2ccccc12`: the “activity change, negative = inhibition” value is inactive: 1.35%.

As to `CC(=O)Nc1ccc(NC(=O)C(C)OC(=O)c2ccccc2C(=O)c2ccc(Cl)c([N+](=O)[O-])c2)cc1` (stereo not given), the “activity change, negative = inhibition” value was inactive: -3.09%.

For the compound `CSc1cnn(Cc2ccccc2)c(=O)c1SCc1ccccc1`, the “activity change, negative = inhibition” value was inactive: -0.923%.

Take `O=C(CSc1ccc(F)cc1)N1CCC(c2nc3ccccc3s2)CC1`: the “activity change, negative = inhibition” value is inactive: -2.02%.

Consider `CC(=O)N1c2ccc(S(=O)(=O)N3CCC(C(=O)NC4CCCCC4C)CC3)cc2CC1C` (stereo not given), for which the “activity change, negative = inhibition” value was inactive: -0.56%.

With `N#CC(C#N)=NNc1ccc([N+](=O)[O-])cc1`, the “activity change, negative = inhibition” value was inactive: -0.806%.

Consider `COc1ccc(OCC(=O)NC(=S)Nc2ccc(N3CCOCC3)c(Cl)c2)cc1`, for which the “activity change, negative = inhibition” value was inactive: -2.68%.

Consider `N#Cc1c(Cl)nsc1NC(=O)c1ccccc1`, for which the “activity change, negative = inhibition” value was inactive: -2.2%.

Consider `CNC(=S)n1cnc(N)n1`, for which the “activity change, negative = inhibition” value was inactive: 1.11%.

On to `O=C(Nc1nnc(C(F)(F)F)s1)c1ccc(Br)s1`, for which the “activity change, negative = inhibition” value is inactive: -2.84%.

With `O=C(O)c1ccc(NC2=C(Cl)C(=O)c3ccccc3C2=O)cc1`, the “activity change, negative = inhibition” value was inactive: -5.33%.

As to `CC(C)C(c1nnnn1Cc1cccs1)N1CCN(c2ccccc2)CC1` (stereo not given), the “activity change, negative = inhibition” value is inactive: -1.99%.

With `Clc1ccc(C2Nc3cccc4cccc(c34)N2)cc1`, the “activity change, negative = inhibition” value was inactive: 0.951%.

With `O=C(NCCc1ccccc1)C(=O)NCC1OCCCN1S(=O)(=O)c1cc(F)ccc1F` (stereo not given), the “activity change, negative = inhibition” value is inactive: -1.72%.

As for `CC1CC(C)CN(C(=O)c2ccc3c(=O)n(Cc4ccc5c(c4)OCO5)c(=S)[nH]c3c2)C1` (stereo not given), the “activity change, negative = inhibition” value was inactive: -0.366%.

`CC(NC(=O)c1ccc([N+](=O)[O-])o1)C1CC2CCC1C2` (stereo not given): the “activity change, negative = inhibition” value was inactive: 2.43%.

As for `CSc1nnc(NC(=O)c2nc(S(=O)(=O)Cc3ccccc3F)ncc2Cl)s1`, the “activity change, negative = inhibition” value was inactive: -5.97%.

Regarding `O=C(NCCC1=CCCCC1)c1ccc2c(c1)N(Cc1ccccc1)C(=O)CS2`, the “activity change, negative = inhibition” value was inactive: 2.35%.

Take `Cc1ccc(OCc2cc(C(=O)NCC3COCCO3)no2)cc1C` (stereo not given): the “activity change, negative = inhibition” value was inactive: -0.016%.

On to `COc1ccc(CNC(=O)Cn2nc(Cc3cccnc3)c3ccccc3c2=O)cc1`, for which the “activity change, negative = inhibition” value was inactive: -0.39%.

In the case of `Cc1ccc(S(=O)(=O)N2CCCCC2)cc1NC(=O)Cn1ncc(Cl)c(Cl)c1=O`, the “activity change, negative = inhibition” value was inactive: -8.61%.

On to `Cc1ccc(C(=O)Nc2ccc(Br)c(C(F)(F)F)c2)cc1`, for which the “activity change, negative = inhibition” value was inactive: -5.48%.

Regarding `O=C(Nc1nnc(S(=O)(=O)N2CCCCC2)s1)c1cccc(Br)c1`, the “activity change, negative = inhibition” value was inactive: 1.88%.

As for `O=[N+]([O-])c1c(Nc2cccc(O)c2)cc(Cl)c2nonc12`, the Potency was active: 30.1 µM.

For `Cc1ccc(NC(=S)NC(=O)c2ccc(F)cc2)cc1S(=O)(=O)Nc1cccc(Cl)c1`, the “activity change, negative = inhibition” value was inactive: 1.85%.

For the compound `Cc1ccc(NC(=S)c2nc3ccccc3s2)cc1`, the “activity change, negative = inhibition” value is inactive: -0.0086%.

Turning to `COC(=O)c1sc(NC(=O)C(C)C)c(C(=O)OC)c1C`, the “activity change, negative = inhibition” value is inactive: 0.962%.

Take `S=c1[nH]nc(-c2ccccc2)n1C1C=CCCC1` (stereo not given): the “activity change, negative = inhibition” value was inactive: -1.23%.

`C=CCC1(CC=C)CCCN1C(=O)c1cc(COc2ccc(C)nc2)on1`: the “activity change, negative = inhibition” value is inactive: -3.32%.

`O=C(Nc1ccncc1)c1ccc2c(c1)C(=O)N(C1CCCCC1)C2=O`: the “activity change, negative = inhibition” value was inactive: -3.31%.

In the case of `O=C1NC(=S)SC1=C1CCCCCC1`, the “activity change, negative = inhibition” value is inactive: 0.716%.

Take `CC(C)N(C(=O)Cn1c(-c2cccnc2)ccc(C#N)c1=O)C(C)C`: the “activity change, negative = inhibition” value was inactive: 1.41%.

Regarding `COc1ccc(-c2cc(C3CCN(c4cc(Cl)nc(N)n4)CC3)[nH]n2)cc1`, the “activity change, negative = inhibition” value is inactive: -0.959%.

Take `CCOc1ccc(CCNC(=O)c2ccc3c(=O)[nH]c4c(C(=O)NC(C)C)sc(=S)n4c3c2)cc1`: the “activity change, negative = inhibition” value is inactive: -0.782%.

For `CC(C)C(NC(=O)Cc1ccccc1)C(=O)N1CCN(c2cccc(Cl)c2)CC1` (stereo not given), the “activity change, negative = inhibition” value was inactive: -1.58%.

For `CCCCn1c(NC(=O)c2ccccc2Cl)c(C#N)c2nc3ccccc3nc21`, the “activity change, negative = inhibition” value is inactive: 0.264%.
